Measurements from article PMC9574860, “Chemical Toolkit for PARK7: Potent, Selective, and High-Throughput” (Journal of Medicinal Chemistry, 2022).
In all, about 7,900 compounds went through this assay and about 400 (5.1%) showed an effect of 50% or more. The list shows a part of the results.

What follows are compounds tested against Parkinson's disease protein 7 (PARK7/DJ1) (human, UniProt Q99497) (assay: primary screen, percent inhibition; read as competition with a fluorescent probe by fluorescence polarization; higher = more effect of the substance). Details: 100 µM.
Chain of Parkinson's disease protein 7 (PARK7/DJ1) (Q99497 whole entry, looked up, the tested form may be a part): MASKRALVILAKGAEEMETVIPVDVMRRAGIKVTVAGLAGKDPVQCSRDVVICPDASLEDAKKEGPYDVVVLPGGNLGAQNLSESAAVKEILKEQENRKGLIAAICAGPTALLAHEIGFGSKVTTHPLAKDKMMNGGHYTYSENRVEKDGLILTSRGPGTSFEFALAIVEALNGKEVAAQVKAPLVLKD
Outline: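 Covalent fragments at 100 μM final were incubated 2 h with 0.2 μM PARK7, then 20 nM probe JYQ-107 added for a further 2 h. Fluorescence polarization read at 480/520 nm; relative FP loss versus reference controls gave remaining enzyme activity.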
`Nc1c(C(=O)CCl)c(=O)[nH]c(=O)n1Cc1ccccc1` showed an Inhibition % of 10.6%. For `C=CC(=O)N1CCN(c2ccccc2)C(=O)C1`, the Inhibition % was 12.4%. `CCc1ccc(B2OC(C)(C)C(C)(C)O2)n1C(=O)OC(C)(C)C` gave an Inhibition % of 5.89%. Compound `C=CC(=O)Nc1cccc(C2CCC(=O)N2)c1` (centres unmarked) has an Inhibition % of 12.6%. Work on `Cc1ccccc1OS(=O)(=O)c1c(C)nn(C)c1Cl` yielded an Inhibition % of 10.2%. `O=C(O)c1ccc(N2C(=O)CCC2=O)cc1` showed an Inhibition % of -3.2%. For `C=CC(=O)NC1Cc2ccccc2NC1=O` (centres unmarked), the Inhibition % was 12.2%. `O=C(Oc1ccc(-c2nnco2)cc1)N1CCOCC1` showed an Inhibition % of 8.48%. With `C=CC(=O)N1CCN(c2ncnc3c2cnn3C)CC1` the Inhibition % was 1.13%. `N#Cc1[nH]ccc2nccc1-2` showed an Inhibition % of 18.7%. Work on `C=CC(=O)NCC1CCCOC1` (centres unmarked) yielded an Inhibition % of -1.16%. Compound `CC(=O)NCCc1ccc(C(=O)CCl)cc1` has an Inhibition % of 70.8%. With `Cc1ccccc1-n1nnnc1SC1CCOC1=O` (centres unmarked) the Inhibition % was 5.57%. `CCOc1c(Cl)cc(C=C(C#N)C(N)=O)cc1OC` gave an Inhibition % of 5.8%. In the case of `O=C(NCC1CCC(O)C1)c1cc(B(O)O)ccc1F` (centres unmarked), the Inhibition % is reported as 1.49%. For `Cc1cccc(C)c1NC(=O)Cn1cnc(C#N)n1`, the Inhibition % was 6.38%. `C=CC(=O)NCc1cccc(-n2cncn2)c1` was tested, and the Inhibition % was 10.3%. Work on `C=CC(=O)NC1(c2noc(C(F)F)n2)CCC1` yielded an Inhibition % of -3.62%. `Cc1nc(C#N)c(N2CCN(c3cccc(Cl)c3)CC2)o1` gave an Inhibition % of 7.87%. In the case of `Cc1cc(SC2CC(C)OC2=O)nc(C)n1` (centres unmarked), the Inhibition % is reported as 7.91%. `CC1CCCN(C(=O)C=CC2CCOCC2)C1CN` (centres unmarked) was tested, and the Inhibition % was 3.25%. Work on `C=CC(=O)N1CCCC1c1ccnn1C` (centres unmarked) yielded an Inhibition % of 6.12%. Work on `C=CC(=O)N1CCSC2(CCC2)CC1` yielded an Inhibition % of 10.9%. `Cc1ccc(NC2C=CS(=O)(=O)C2)cc1C` (centres unmarked) gave an Inhibition % of 17.4%. `C=CC(=O)NC(C)c1cnn(C)c1` (centres unmarked) showed an Inhibition % of 5.67%. `O=C(CCCl)N1CCCCC1` was tested, and the Inhibition % was 4.37%. `O=C(O)c1ccc(-c2nc(=O)o[nH]2)cc1` gave an Inhibition % of 2.46%. `O=C(CN1CCSC1=O)N1CCCC1` showed an Inhibition % of 6.93%. In the case of `O=C1NC(C2CC2)C12CCOCC2` (centres unmarked), the Inhibition % is reported as 5.28%. In the case of `CCc1ccccc1S(=O)(=O)N[C@@H]1COC(=O)C1`, the Inhibition % is reported as 9.65%. With `Cc1ccc(C=CS(=O)(=O)NC(C)CC#N)cc1` (centres unmarked) the Inhibition % was 1.08%. `CC1CC(Sc2nnc(-c3ccccc3)o2)C(=O)O1` (centres unmarked) showed an Inhibition % of 0.804%. Compound `N#Cc1cnccc1S` has an Inhibition % of 92.5%. `COc1cc(Cl)c(C)cc1NC(=O)CCl` gave an Inhibition % of 13.1%. In the case of `CC(NC(=O)CCl)c1ccc2c(c1)CCCC2` (centres unmarked), the Inhibition % is reported as 5.3%.
